Reference: PubChem BioAssay AID1347073 (National Center for Advancing Translational Sciences (NCATS), 2019)
In all, about 45,000 compounds went through this assay and about 200 (0.44%) were called active. About 7% were inconclusive and are not listed. Calls come from the whole dose curve; as a rule, active = well fitted activation curve with a large enough effect; inconclusive = small, poorly fitted or top-dose-only effect; inactive = no such curve, though single readings can be large or run the other way. The list shows a part of the results.

Test: qHTS of TDP-43 Inhibitors: NCGC Sytravon Library Screen; note: 0% is about no effect; nearly all actives have a fitted effect of over 55% in size
Details: yeast TDP-43 toxicity rescue, BacTiter-Glo growth, 24 h; series mostly up to 46.1 µM; growth rescue (activation): at the top concentration
Outline: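 TDP-43-expressing yeast, pregrown in raffinose, seeded at OD600 0.02 in galactose medium with compound for 24 hr at 30 deg C. Growth read by BacTiter-Glo luminescence, so rescue of toxicity appears as activation.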

SMILES | growth rescue (activation)
CCN1C(=O)/C(=C\C=C\c2ccccc2[N+](=O)[O-])SC1=S | inactive: 1.11%
O=C(Cc1ccc(Br)cc1)N/N=C/c1ccc(-c2cccc(C(=O)O)c2)o1 | inactive: 4.76%
COc1cc(C(=O)NCC(=O)N/N=C/c2ccc(-c3ccc([N+](=O)[O-])cc3)o2)cc(OC)c1OC | inactive: 10%
O=S(=O)(c1ccccc1F)N1CCN(c2nc3ccccc3s2)CC1 | inactive: 9.34%
CCN(CC)S(=O)(=O)c1ccc(N2CCN(c3ccccc3O)CC2)nc1 | inactive: 21.7%
Cc1nnc(NC(=O)C(c2ccccc2)c2ccccc2)s1 | inactive: 2.99%
CCCNC(=O)CSCc1nc(-c2ccc(SC)cc2)oc1C | inactive: 27.7%
O=C(COc1ccccc1Cl)N1CCc2ccccc21 | inactive: 17.2%
O=C(O)c1ccc(-n2c(-c3cc(C4CC4)[nH]n3)n[nH]c2=S)cc1 | inactive: 18.6%
Cc1cccc(C)c1NC(=S)N(Cc1ccco1)C1CCN(C(C)C)CC1 | inactive: 14.7%
NC(=S)N/N=C/c1ccc([N+](=O)[O-])cc1 | inactive: 16.7%
COc1ccc(S(=O)(=O)N2CCCC(C(=O)N3CCOCC3)C2)cc1OC (centres undefined) | inactive: 10.3%
CC(C)CN1CCNC(=O)C1CC(=O)N(C)CC1CCOCC1 (centres undefined) | inactive: -15.8%
CCc1ccccc1NC(=O)CNC(=O)c1ccc(OCc2cn3ccccc3n2)cc1 | inactive: -12.5%
COc1ccccc1CNC(=O)CN1C(=O)NC2(CCC(C)CC2)C1=O (centres undefined) | inactive: -0.951%
COc1ccc(C2CCCN2C(=S)Nc2cccc(Cl)c2C)cc1OC (centres undefined) | inactive: 3.7%
CN(C)c1ccc(C(C(=O)NCC2CCCO2)N(Cc2ccco2)C(=O)c2snc(C(N)=O)c2N)cc1 (centres undefined) | inactive: 8.33%
CN(C)c1cccc(C(=O)NCC2CCCO2)c1 (centres undefined) | inactive: -16.3%
CC(C(=O)Nc1ccc2c(c1)OCO2)N1CCN(C)CC1 (centres undefined) | inactive: 21.3%
CC(C)n1nc(C(=O)OCn2nnc3ccccc3c2=O)c2ccccc2c1=O | inactive: -7.41%
CCS(=O)(=O)n1nc(-c2cccnc2)nc1NCc1ccc(F)cc1 | inactive: 1.59%
CCOCCn1c(=O)c2c(nc3n2CCN3c2ccc(C)cc2)n(C)c1=O | inactive: 24.7%
COc1cc(NC(=S)NN2CCN(C)CC2)cc(OC)c1OC | inactive: 0.533%
CCOc1ccc(NC(=O)CN2CCC(n3cnc4cc(F)ccc43)CC2)cc1 | inactive: 1.4%
COCCNC(=O)C1(C)CCCN(C(=O)c2cccc(OC(F)(F)F)c2)C1 (centres undefined) | inactive: 8.7%
O=C(COC(=O)CNS(=O)(=O)c1ccccc1)Nc1ccc(Cl)cn1 | inactive: 2.31%
COc1ncccc1-c1cc2nc(NCCNC(C)=O)n(C)c(=O)c2s1 | inactive: 5.15%

SMILES | growth rescue (activation)
CC(C)(C)NC(=O)C(=O)NNC(=O)c1ccc(C(C)(C)C)cc1 | inactive: 4.86%
CC(=O)OCC1=C(C(=O)O)N2C(=O)C(NC(=O)c3ccc(F)cc3)C2SC1 (centres undefined) | inactive: 2.48%
FC(F)(F)c1ccccc1-n1c(-c2cnccn2)n[nH]c1=S | inactive: 6.59%
O=c1c2cn(Cc3ccc(F)cc3)c3ccc(F)cc3c-2nn1Cc1ccc(F)cc1 | inactive: 0.691%
CC(C)C(=O)NCCc1c[nH]c2ccccc12 | inactive: -10.7%
CN(C)S(=O)(=O)c1ccc(NC(=O)CN2CCCCCC2)cc1 | inactive: -0.988%
CN(Cc1nccs1)C(=O)C1CCC(=O)N(CCc2cccc(F)c2)C1 (centres undefined) | inactive: -8.65%
CC(=O)c1ccc(NC(=S)NC(=O)Cc2ccc(Cl)cc2)cc1 | inactive: 7.47%
COc1cccc(NC(=O)C2(C)CCN2Cc2ccc(SC)cc2)c1 (centres undefined) | inactive: 12.6%
COc1cccc(CNC(=O)CC2C(=O)NCCN2Cc2ccoc2)c1OC (centres undefined) | inactive: -3.19%
O=C(COC(=O)c1cc2ccccc2cc1O)NCc1ccccc1 | inactive: 4.47%
CC1CCCCC1NC(=S)NC(=O)c1ccccc1Cl (centres undefined) | inactive: 16.1%
CCC(CC)C(=O)Nc1cc([N+](=O)[O-])ccc1F | inactive: 7.14%
O=C(NC1CCCc2ccccc21)c1ccccn1 (centres undefined) | inactive: 12.2%
CCn1c(SCC(=O)Nc2ccc(C)cc2)nc2nc3c(cc2c1=O)COC(C)(C)C3 | inactive: 6.41%
COc1ccc(/C=N/NC(=O)c2ccc(O)cc2)cc1CN1CCCc2ccccc21 | inactive: 16.6%
O=C(/C=C/c1cccc(Cl)c1)N1CCC(Cc2ccccc2)CC1 | inactive: 2.6%
CC1(C(=O)NS(=O)(=O)c2ccc3c(c2)CCO3)CCN1C(=O)CCC1CCCC1 (centres undefined) | inactive: -6.63%
CC1=NN(C(=O)c2ccc(Br)cc2)C(O)(c2ccccc2)C1 (centres undefined) | inactive: -2.36%
CCOC(=O)c1sc(NC(=O)C2CC(=O)N(c3ccccc3C)C2)nc1C (centres undefined) | inactive: 7.91%
CSc1ccccc1C(=O)OCC(=O)Nc1cccnc1Cl | inactive: 29.5%
COc1ccccc1NC(=O)/C(=C/c1ccncc1)NC(=O)c1ccccc1 | inactive: 7.72%
Cc1ccc(C#N)c(SCc2ccccc2[N+](=O)[O-])n1 | inactive: 11.4%
O=C(Nc1cccc2ccccc12)c1ccc(Br)o1 | inactive: 32.4%
CCC(=O)N(Cc1ccc2c(c1)OCO2)Cc1cc2cc(OC)ccc2[nH]c1=O | inactive: -10.2%
C=CCn1c(SCC(=O)Nc2ccc(-c3nc4ccc(C)cc4s3)cc2)nnc1-c1ccncc1 | inactive: -13.6%
N#C/C(=C\c1ccc(Cl)cc1)C(=O)Nc1cccnc1 | inactive: 3.9%
